Measured values reported in PubChem BioAssay AID1159614 (National Center for Advancing Translational Sciences (NCATS), 2016).
Among all 45,000 compounds or so, about 65 (0.1%) were called active. The call rests on the fitted dose curve; in most records, active means well fitted activation curve with a large enough effect; inconclusive means small, poorly fitted or top-dose-only effect; inactive means no such curve, though single readings can be large or run the other way. This is one part of the list.

target: Galactocerebrosidase (Homo sapiens) (UniProt P54803); assay: A Novel Cell-Based Assay to Identify Small Molecules for B -Galactocerebrosidase; conditions: 145M-Twi-hGALC-G270D cells, HMU-beta-Gal fluorescence, 48 h; series mostly up to 57.5 µM; activation: at the top concentration; further: 0% is about no effect; nearly all actives have a fitted effect of over 65% in size
Sequence of UniProt P54803 (P54803 whole entry, looked up): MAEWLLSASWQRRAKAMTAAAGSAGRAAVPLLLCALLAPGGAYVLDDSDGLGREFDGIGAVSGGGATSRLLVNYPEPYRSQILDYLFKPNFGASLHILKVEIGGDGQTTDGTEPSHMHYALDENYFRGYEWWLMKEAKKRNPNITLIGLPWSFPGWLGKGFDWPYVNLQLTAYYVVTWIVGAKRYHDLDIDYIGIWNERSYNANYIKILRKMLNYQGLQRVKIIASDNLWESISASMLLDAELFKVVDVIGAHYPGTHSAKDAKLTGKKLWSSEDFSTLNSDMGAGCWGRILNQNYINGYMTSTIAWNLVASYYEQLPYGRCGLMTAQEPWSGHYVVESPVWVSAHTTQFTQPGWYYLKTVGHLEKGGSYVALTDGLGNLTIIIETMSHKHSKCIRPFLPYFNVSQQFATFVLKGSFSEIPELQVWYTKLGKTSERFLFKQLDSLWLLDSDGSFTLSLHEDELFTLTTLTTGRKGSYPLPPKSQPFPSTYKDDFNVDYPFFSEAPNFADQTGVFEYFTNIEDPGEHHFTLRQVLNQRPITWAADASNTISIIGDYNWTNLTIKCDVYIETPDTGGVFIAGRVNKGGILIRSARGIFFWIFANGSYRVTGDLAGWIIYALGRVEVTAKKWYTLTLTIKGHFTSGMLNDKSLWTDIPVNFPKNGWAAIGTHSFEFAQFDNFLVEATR
In short: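 qHTS, 1536-well; 145M-Twi-hGALC-G270D cells (WT line also made) in DMEM/F12 + 10% FBS; compound incubation on live cells; HMU-β-gal 0.1 mM final, pH 5.2, NaTC; carbonate stop; fluorescence increase = enhanced residual activity.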

activation, inactive:
CCOc1ccccc1NC(=O)c1cnn2c(C(F)F)cc(-c3ccccc3)nc12 -9.54%
COCCCNC(=O)C1CCN(c2nn3cc(-c4ccc(F)cc4)nc3s2)CC1 -10.5%
COc1cccc(CCNC(=O)c2c(O)nc3ccccn3c2=O)c1 -9.54%
CC(C)c1cccc(OCCn2c(-c3ccc(Cl)cc3)nc3ccccc3c2=O)c1 -14.6%
Cc1ccccc1C(=O)OCc1cc(=O)n2nc(-c3cccs3)sc2n1 2.16%
Cc1ccc(C)c(NC(=O)c2cc(S(=O)(=O)N3CCCCCC3)ccc2F)c1 -8.48%
CN(C)CCN(Cc1ccco1)C(=O)c1oc2ccccc2c1NC(=O)c1ccccc1 -7.42%
CC1=C(C(=O)Nc2ccccc2)C(c2cccs2)n2nc(SCc3ccccc3F)nc2N1 (stereo not drawn) -0.917%
O=C(Nc1cc(F)ccc1F)N1CCC(CN2CCCC2)CC1 -6.87%
CN(C)[C@@H]1C(=O)C(C(N)=O)=C(O)[C@@]2(O)C(=O)C3=C(O)c4c(O)ccc(Cl)c4[C@@H](O)[C@H]3C[C@@H]12 -13.5%
CN1C(=O)Cc2cc(S(=O)(=O)CCC(=O)Nc3ccc(F)c(Cl)c3)ccc21 -8.1%
O=C(CSc1nnc(NC(=O)Nc2ccccc2)s1)Nc1cccc(F)c1 -2.84%
Cn1cc(S(=O)(=O)c2cccc(Cl)c2)c(=O)c2cc(F)c(N3CCN(c4ccccc4)CC3)cc21 -16.5%
Cc1ccc2c(=O)c(C(=O)c3cccc(Cl)c3)cn(CC(=O)Nc3ccc4c(c3)OCCO4)c2n1 -12.7%
COc1ccc(CCCc2nnc(SCC(=O)Nc3ccc(OC)cc3)o2)cc1 -5.6%
CCCc1nn2c(=O)cc(COC(=O)c3ccccc3NC(=O)c3ccc(Cl)cc3)nc2s1 -16.9%
CCc1ccccc1Nc1cc(C(=O)NC(C)c2ccccc2)c2ccccc2n1 (stereo not drawn) -10.7%
COc1cc(C2c3c(-c4cc(C)ccc4O)n[nH]c3C(=O)N2CCCO)ccc1OCCC(C)C (stereo not drawn) -18.8%
CCOC(=O)c1cccc(NC(=O)CCn2nc(C)c(S(=O)(=O)N3CCCCC3)c2C)c1 -18%
CCCC(=O)Nc1ccc(-c2nc3ncccc3o2)cc1C -19.5%
Cc1ccc(NC(=O)C(C)Sc2nc(=O)cc(N)n2-c2ccccc2)cc1 (stereo not drawn) 23.2%
CCOC(=O)c1ccccc1NC(=O)N1CCC(CN2CCCCC2)CC1 -15.5%
CCOc1ccc(NC(=O)CN2CCCN(Cc3cc(C)ccc3C)S2(=O)=O)cc1 -25.7%
COc1ccc2c(c1)CCCC2=O -10.9%
COCCNC(=O)c1cccc(-n2c(C)nc3cccnc32)c1 -0.375%
Cc1nc(-c2cccnc2)sc1CCNS(=O)(=O)c1ccc(F)cc1 4.78%
COc1ccc2c(CNCCc3ccco3)c(C(=O)O)n(Cc3ccccc3)c2c1 -7.1%
CCOc1ccc(NC(=O)C2CCN(c3nnc(-n4c(C)ccc4C)s3)CC2)cc1 -6.39%
COc1ccc(NC(=O)CSc2nc3ccccc3n2Cc2cccc(OC)c2)cc1 -18.6%
COc1cc(OC)cc(-n2c(=O)c3sccc3n(Cc3c(C)cc(C)cc3C)c2=O)c1 2.13%
Cc1ccc(NC(=O)c2cc(S(=O)(=O)N3CCc4ccccc43)ccc2F)cc1Cl -15.2%
COc1ccc(-c2cc(C(F)(F)F)nc(SCC(=O)NCCc3ccccc3)n2)cc1OC -20.9%
CCc1sc(Nc2cccc(C)c2C)nc1-c1cc2cccc(OC)c2oc1=O -9.57%
CCc1ccc(-n2c(=O)c3cccnc3n2CC(=O)Nc2cc(F)ccc2F)cc1 -20.4%
CCOC(=O)N1CCc2c(sc(NCc3cc(OC)c(OC)cc3OC)c2C(=O)Nc2ccc(OCC)cc2)C1 -14.1%
CCN(CC)C(=O)Cn1cc(SCC(=O)Nc2ccccc2C)c2ccccc21 -16.3%
CC(=O)Oc1cc2c(s1)CCN(C(C(=O)C1CC1)c1ccccc1F)C2 (stereo not drawn) -0.925%
CCOC(=O)c1cccc(NC(=O)NCc2ccc3c(c2)CCN3C(=O)c2ccccc2)c1 -11.3%
Cc1cccc(-c2nc(SCCCOc3ccc(Cl)c(C)c3)n3[nH]c(=O)cc3n2)c1 -7.17%
CCOC(=O)c1ccc(-c2ccc(/C=C(\C#N)C(=O)Nc3ccc(OCC)cc3)o2)cc1 -8.48%
CC(O)CCCCn1c(=O)c2c(ncn2C)n(C)c1=O (stereo not drawn) -14.6%
CCN1CCN(c2ncc3c(n2)CCN(Cc2ccc(OC(C)C)cc2)C3)CC1 -7.88%
CCc1nn(Cc2cc(C)ccc2C)c(=O)c2cc3cc(C)ccc3n12 -3.39%
CCOC(=O)c1c(S(=O)(=O)NCC(=O)Nc2cc(C)ccc2C)c(C)n(C)c1C 6.52%
Cc1ccc(NS(=O)(=O)c2ccc3c(c2)CCCN3C(=O)C2CCC2)c(C)c1 -13.9%
COc1ccc(C2(CNC(=O)C(=O)Nc3ccc(F)cc3)CCCC2)cc1OC -27%
COC(=O)c1nnn(-c2cccc(C)c2)c1C(=O)OC -20.6%
CCCSc1nc2sc3c(c2c(=O)n1Cc1ccccc1)CC(C)(CC)OC3 (stereo not drawn) -3.53%
Cc1ccc(NC(=O)C2CCC(CNS(=O)(=O)c3csc(C(N)=O)c3)CC2)cc1Cl (stereo not drawn) -13.3%
COc1ccc(Cl)cc1-n1nnc(-c2nsc(NC(=O)c3ccccc3Cl)n2)c1C -10.6%
CCc1ccccc1NC(=O)C(=O)NCC(c1cccnc1)N1CCN(c2ccccc2F)CC1 (stereo not drawn) -11.9%
COc1ccc(N2CCN(C(=O)c3cc4c(s3)-c3ccccc3OC4)CC2)cc1 21.5%
Cc1ccc(-c2cn3c(n2)sc2cc(C(=O)NC(C)C45CC6CC(CC(C6)C4)C5)ccc23)cc1 (stereo not drawn) 0.137%
CCOC(=O)C1CCN(S(=O)(=O)c2csc(C(N)=O)c2)CC1 -12.3%
COc1ccc(N2CC(NC(=O)c3ccc(Br)o3)CC2=O)cc1 (stereo not drawn) 4.47%
CCc1nn2c(=O)cc(COC(=O)c3ccco3)nc2s1 -5.27%
CCOc1ccc(C(=O)NCCS(=O)(=O)N2CCN(c3ccccc3F)CC2)cc1OCC -15.2%
Cc1cc(Cl)ccc1NC(=O)CN(c1ccccc1Br)S(C)(=O)=O -3.34%
COc1ccc(CN2CCN(c3ncnc4sc5c(c34)CC(C)CC5)CC2)cc1F (stereo not drawn) -19.5%
Cc1ccccc1C(=O)Nc1nc(-c2nnn(-c3ccc(C(C)C)cc3)c2C)ns1 9.87%
O=C(Cn1ncc2c([nH]c3ccccc32)c1=O)NCC1CCN(Cc2ccc(F)cc2)CC1 0.731%
CCOc1ccccc1CNC(=O)C1CCN(S(=O)(=O)c2ccc3c(ccn3C)c2)CC1 -9.03%
C[C@H]1O[C@@H](O[C@H]2CC[C@@]3(C)[C@H](CC[C@@H]4[C@@H]3C[C@@H](O)[C@]3(C)[C@@H](C5=CC(=O)OC5)CC[C@]43O)C2)C[C@H](O)[C@@H]1O[C@H]1C[C@H](O)[C@H](O[C@H]2C[C@H](O)[C@H](O[C@@H]3O[C@H](CO)[C@@H](O)[C@H](O)[C@H]3O)[C@@H](C)O2)[C@@H](C)O1 -15.7%
COc1ccccc1N1CCN(CCCNC(=O)c2cnn(-c3ccccc3)c2C2CCN(C(=O)OC(C)(C)C)CC2)CC1 1.62%
CC1=C(C(=O)NCc2ccc(Cl)cc2)C2(CCCCC2)OC1=O -15.3%
Cc1ccc(/C=C/c2onc(C)c2S(=O)(=O)N2CCC(C(=O)NCC(C)c3ccccc3)CC2)cc1 (stereo not drawn) 0.737%
CC(C)C(=O)Nc1ccc([N+](=O)[O-])c(C(F)(F)F)c1 -12.4%
CCn1cc(S(=O)(=O)c2cccc(Cl)c2)c(=O)c2cc(F)c(N3CCN(c4ccccc4)CC3)cc21 2.8%
Cc1ccc(C)n1-c1nnc(N2CCCC(C(=O)NCc3cccc(Cl)c3)C2)s1 (stereo not drawn) -10.8%
CCc1ccc(-n2c(Cc3ccccc3)nnc2SCc2nc(-c3cccs3)no2)cc1 -32.4%
COc1ccc(NS(=O)(=O)c2ccc3[nH]c4c(c3c2)CCCC4)cc1Cl -14.3%
Cc1ccc(CN2C(=O)c3oc4ccc(C)cc4c(=O)c3C2c2ccc(O)cc2)cc1 (stereo not drawn) -21.2%
COc1cc(OC)c(NC(=O)Cn2c(=O)oc3cc(S(=O)(=O)N4CCCC4)ccc32)cc1Cl -5.56%
Cc1ccc(Cl)cc1N1CCN(S(=O)(=O)c2ccc3c(c2)CCCN3C(=O)C2CCC2)CC1 21.8%
CCCCCn1c(-c2ccc(OC)c(OC)c2)nc2ccccc21 -17.4%
O=C(NCCc1ccccc1)c1cc(Sc2cccc(Cl)c2)nc2ccccc12 -11.9%
Cc1c(-c2nsc(NC(=O)c3ccccc3)n2)nnn1-c1ccc(C(F)(F)F)c(Cl)c1 -9.18%
CCOC(=O)c1cccc(NC(=O)[C@@H](c2ccccc2)N2Cc3ccccc3C2=O)c1 -5.53%
O=C1c2oc3ccccc3c(=O)c2C(c2ccccc2)N1Cc1ccc2c(c1)OCO2 (stereo not drawn) -11.2%
CN1C(=O)c2ccccc2Sc2ccc(NC(=O)c3ccccc3F)cc21 -4.78%
CC1COc2c(N3CCN(C)CC3)c(F)cc3c(=O)c(C(=O)O)cn1c23 (stereo not drawn) -6.49%
CCN1C(=O)c2ccccc2Sc2ccc(C(=O)NCCCN(CC(C)C)CC(C)C)cc21 0.187%
Cc1cc(C)c(NC(=O)Cc2csc(C)n2)c(Cl)c1 -6.43%
O=C(NCC1CCN(Cc2cccc(Cl)c2)CC1)Nc1cc(Cl)ccc1Cl -10.1%
COc1cccc(NC(=O)CN2C(=O)c3cccnc3Oc3ccc(Cl)cc32)c1 -11%
COc1ccc(N(C)C(=O)CCn2cnc3onc(-c4ccc(F)cc4)c3c2=O)c(OC)c1 -5.75%
CCc1ccc(NC(=O)c2sc(-n3nc(C)c(Cc4ccc(OC)cc4)c3C)nc2C)cc1 2.44%
COC(=O)c1c(-c2cccs2)csc1NC(=O)COc1ccc(C(C)(C)C)cc1 -3.62%
COc1ccccc1CNc1ccc(-c2nc(-c3cccnc3)no2)cc1[N+](=O)[O-] -2.94%
Cc1ccc(C(=O)Nc2ccc(-c3cn4cccnc4n3)cc2)cc1C 13.4%
CCOc1ccccc1NC(=O)c1nn(-c2ccc(C)cc2)c(=O)n(C)c1=O -11.3%
CCOc1ccccc1C1C(C(=O)N2CCCCC2)=C(C)Nc2nc3ccccc3n21 (stereo not drawn) -12.7%
Cc1cccc(OCC(=O)N(Cc2cccs2)c2ccc(Cl)cc2)c1C -4.5%
